± gives the uncertainty stated by the source. Whole data set: some 9,900 compounds, median “viability index relative to DMSO control” near 1, cut for the lowest 2% near 0.85. Some of the results follow.

The assay deals with Plasmodium falciparum NF54 stage V gametocytes. The experiment in a line: viability index relative to DMSO control (fraction); higher = less gametocyte killing. The settings on record: 2.5 µM, library set: Broad Institute DOS, incubation time: 72 h. Here is the method:
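Broad DOS informer set and blood-stage-active DOS compounds screened in duplicate at 2.5 µM against P. falciparum NF54 stage V gametocytes with the serum-free one-step SaLSSA (1536-well): 72 h at 37 °C under low oxygen, then saponin lysis and MitoTracker Red CMXRos staining, with high-content imaging. Viability index = viable-object count divided by the plate mean of DMSO wells (0 = killed, about 1 = inactive).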
`COc1cccc(NC(=O)C[C@H]2CC[C@@H]3[C@H](COc4ccc(NS(=O)(=O)c5cccc(F)c5)cc4C(=O)N3C)O2)c1` had a viability index of 1.13 ± 0.1.
As for `COc1cccc(NC(=O)N[C@H]2CC[C@H](CC(=O)N3CCN(C)CC3)O[C@@H]2CO)c1`, the viability index is 1.12 ± 0.1.
With `COc1cccc(NC(=O)N2[C@@H](CO)[C@H](c3ccccc3)[C@@H]2CNCC(C)C)c1`, the viability index is 0.956 ± 0.041.
As for `COc1cccc(NC(=O)N[C@H]2CC[C@@H](CC(=O)N3CCN(C)CC3)O[C@H]2CO)c1`, the figure is 1.11 ± 0.026; as for `O=C(CCN1CCCCC1)N[C@@H]1CC[C@H](CC(=O)N2CCC(Cc3ccccc3)CC2)O[C@H]1CO`, 0.997 ± 0.096; as for `COc1cccc(-c2ccc([C@@H]3[C@@H]4CN(Cc5ccccn5)C[C@H]3N4)cc2)c1`, 1.03 ± 0.033.
The figure for `COc1ccc(S(=O)(=O)Nc2ccc3c(c2)C(=O)N([C@H](C)CO)C[C@H](C)[C@H](CN(C)C(=O)Nc2c(C)noc2C)OCCCC[C@H](C)O3)cc1` is 1.1 ± 0.11; for `O=C(Nc1cc(F)ccc1F)N1CC(=O)N2[C@H](C1)[C@@H](c1ccc(/C=C/c3ccccc3)cc1)[C@@H]2CO` it is 1.16 ± 0.05; for `COc1ccc(C#Cc2ccc([C@H]3[C@H](CO)N4CCCCN(C)C[C@@H]34)cc2)cc1` it is 1.029 ± 0.0018.
As for `CC(C)C#Cc1ccc([C@@H]2[C@H]3CN(C(=O)NC4CCCC4)CC(=O)N3[C@H]2CO)cc1`, the figure is 1.06 ± 0.044; as for `COc1ccccc1NC(=O)Nc1ccc2c(c1)C(=O)N(C)[C@H]1CC[C@H](CC(=O)Nc3ccc4c(c3)COC4)O[C@@H]1CO2`, 0.941 ± 0.088.
Molecule `CCC(=O)N1[C@H](CO)[C@@H](c2ccccc2)[C@@H]1CN(C)C(=O)CN1CCOCC1` displayed a viability index of 1.04 ± 0.05.
For the molecule `COc1ccc(-c2ccc([C@H]3[C@H]4CN(C(=O)C5CC5)CC(=O)N4[C@H]3CO)cc2)cc1`, the viability index came out at 1.09 ± 0.078.
For `CCC(=O)N1[C@@H]2c3ccc(-c4ccc(F)cc4)c(=O)n3C[C@@H]2[C@@H](CO)[C@@H]1C(=O)N(C)C`, the viability index was determined as 1.078 ± 0.0015.
As for `CO[C@H]1CN(C)C(=O)c2cc(NC(=O)C3CCCCC3)ccc2OC[C@@H](C)N(Cc2cccnc2)C[C@H]1C`, the viability index was determined as 1.1 ± 0.097.
`O=C(C[C@H]1C[C@@H]2c3cc(NC(=O)NC4CCCC4)ccc3O[C@@H]2[C@H](CO)O1)NCc1ccccc1F` showed a viability index of 1.09 ± 0.016.
`CO[C@@H]1CC[C@@H]2CCOc3c(C#N)cccc3C(=O)N(C)CC3(CCCCC3)CC(=O)N(C)C[C@H]1O2` had a viability index of 0.9758 ± 0.0056.
Turning to `OC[C@@H]1Nc2ccc(C#Cc3ccc(F)cc3)cc2[C@@H]2[C@H]1CCN2Cc1ccc2c(c1)OCO2`, the viability index is 1.06 ± 0.049.
The molecule `O=C(O)C[C@@H]1C=C[C@H](NC(=O)Nc2cc(F)ccc2F)[C@H](CO)O1` displayed a viability index of 0.985 ± 0.029.
Turning to `CC(C)CC#Cc1ccc([C@@H]2[C@H]3CN(C(=O)c4ccccn4)CC(=O)N3[C@H]2CO)cc1`, the viability index turned out to be 0.991 ± 0.013.

The values are drawn from the supplement of paper PMC4723716.
